Laboratory results taken from patent US20230038638A1.
Numbering of substitutions follows the chain as printed. Names may count otherwise.

B1: CFI-HSA WT; … (SEQ ID NO: 26); CCP_1-4 (enzyme)
chain: [in this place about 600 residues]GGSSGGKVTYTSQEDLVEKKCLAKKYTHLSCDKVFCQPWQRCIEGTCVCKLPYQCPKNGTAVCATNRRSFPTYCQQKSLECLHPGTKFLNNGTCTAEGKFSVSLKHGNTDSEGIVEVKLVDQDKTMFICKSSWSMREANVACLDLGFQQGADTQRRFKLSDLSINSTECLHVHCRGLETSLAECTFTKRRTMGYQDFADVVCYTQKADSPMDDFFQCVNGKYISQMKACDGINDCGDQSDELCCKACQGKGFHCKSGVCIPSQYQCNGEVDCITGEDEVGCAGFASVTQEETEILTADMDAERRRIKSLLPKLSCGVKNRMHIRRKRIVGGKRAQLGDLPWQVAIKDASGITCGGIYIGGCWILTAAHCLRASKTHRYQIWTTVVDWIHPDLKRIVIEYVDRIIFHENYNAGTYQNDIALIEMKKDGNKKDCELPRSIPACVPWSPYLFQPNDTCIVSGWGREKDNERVFSLQWGEVKLISNCSKFYGNRFYEKEMECAGTYDGSIDACKGDSGGPLVCMDANNVTYVWGVVSWGENCGKPEFPGVYTKVANYFDWISYHVGRPFISQYNVGGSSGGSSGGEDCNELPPRRNTEILTGSWSDQTYPEGTQAIYKCRPGYRSLGNVIMVCRKGEWVALNPLRKCQKRPCGHPGDTPFGTFTLTGGNVFEYGVKAVYTCNEGYQLLGEINYRECDTDGWTNDIPICEVVKCLPVTAPENGKIVSSAMEPDREYHFGQAVRFVCNSGYKIEGDEEMHCSDDGFWSKEKPKCVEISCKSPDVINGSPISQKIIYKENERFQYKCNMGYEYSERGDAVCTESGWRPLPSCEE
B2: CFI-HSA WT; … (SEQ ID NO: 26); CCP_2-4 (enzyme)
chain: [in this place about 600 residues]GGSSGGKVTYTSQEDLVEKKCLAKKYTHLSCDKVFCQPWQRCIEGTCVCKLPYQCPKNGTAVCATNRRSFPTYCQQKSLECLHPGTKFLNNGTCTAEGKFSVSLKHGNTDSEGIVEVKLVDQDKTMFICKSSWSMREANVACLDLGFQQGADTQRRFKLSDLSINSTECLHVHCRGLETSLAECTFTKRRTMGYQDFADVVCYTQKADSPMDDFFQCVNGKYISQMKACDGINDCGDQSDELCCKACQGKGFHCKSGVCIPSQYQCNGEVDCITGEDEVGCAGFASVTQEETEILTADMDAERRRIKSLLPKLSCGVKNRMHIRRKRIVGGKRAQLGDLPWQVAIKDASGITCGGIYIGGCWILTAAHCLRASKTHRYQIWTTVVDWIHPDLKRIVIEYVDRIIFHENYNAGTYQNDIALIEMKKDGNKKDCELPRSIPACVPWSPYLFQPNDTCIVSGWGREKDNERVFSLQWGEVKLISNCSKFYGNRFYEKEMECAGTYDGSIDACKGDSGGPLVCMDANNVTYVWGVVSWGENCGKPEFPGVYTKVANYFDWISYHVGRPFISQYNVGGSSGGSSGGRPCGHPGDTPFGTFTLTGGNVFEYGVKAVYTCNEGYQLLGEINYRECDTDGWTNDIPICEVVKCLPVTAPENGKIVSSAMEPDREYHFGQAVRFVCNSGYKIEGDEEMHCSDDGFWSKEKPKCVEISCKSPDVINGSPISQKIIYKENERFQYKCNMGYEYSERGDAVCTESGWRPLPSCEE
B3: CFI-HSA Y408L; N531G; … (SEQ ID NO: 26); CCP_1-4 (enzyme)
chain: [in this place about 600 residues]GGSSGGKVTYTSQEDLVEKKCLAKKYTHLSCDKVFCQPWQRCIEGTCVCKLPYQCPKNGTAVCATNRRSFPTYCQQKSLECLHPGTKFLNNGTCTAEGKFSVSLKHGNTDSEGIVEVKLVDQDKTMFICKSSWSMREANVACLDLGFQQGADTQRRFKLSDLSINSTECLHVHCRGLETSLAECTFTKRRTMGYQDFADVVCYTQKADSPMDDFFQCVNGKYISQMKACDGINDCGDQSDELCCKACQGKGFHCKSGVCIPSQYQCNGEVDCITGEDEVGCAGFASVTQEETEILTADMDAERRRIKSLLPKLSCGVKNRMHIRRKRIVGGKRAQLGDLPWQVAIKDASGITCGGIYIGGCWILTAAHCLRASKTHRYQIWTTVVDWIHPDLKRIVIEYVDRIIFHENYNAGTLQNDIALIEMKKDGNKKDCELPRSIPACVPWSPYLFQPNDTCIVSGWGREKDNERVFSLQWGEVKLISNCSKFYGNRFYEKEMECAGTYDGSIDACKGDSGGPLVCMDANNVTYVWGVVSWGEGCGKPEFPGVYTKVANYFDWISYHVGRPFISQYNVGGSSGGSSGGEDCNELPPRRNTEILTGSWSDQTYPEGTQAIYKCRPGYRSLGNVIMVCRKGEWVALNPLRKCQKRPCGHPGDTPFGTFTLTGGNVFEYGVKAVYTCNEGYQLLGEINYRECDTDGWTNDIPICEVVKCLPVTAPENGKIVSSAMEPDREYHFGQAVRFVCNSGYKIEGDEEMHCSDDGFWSKEKPKCVEISCKSPDVINGSPISQKIIYKENERFQYKCNMGYEYSERGDAVCTESGWRPLPSCEE
B4: CFI-HSA Y408L; N531G; E457G; … (SEQ ID NO: 26); CCP_1-4 (enzyme)
chain: [in this place about 600 residues]GGSSGGKVTYTSQEDLVEKKCLAKKYTHLSCDKVFCQPWQRCIEGTCVCKLPYQCPKNGTAVCATNRRSFPTYCQQKSLECLHPGTKFLNNGTCTAEGKFSVSLKHGNTDSEGIVEVKLVDQDKTMFICKSSWSMREANVACLDLGFQQGADTQRRFKLSDLSINSTECLHVHCRGLETSLAECTFTKRRTMGYQDFADVVCYTQKADSPMDDFFQCVNGKYISQMKACDGINDCGDQSDELCCKACQGKGFHCKSGVCIPSQYQCNGEVDCITGEDEVGCAGFASVTQEETEILTADMDAERRRIKSLLPKLSCGVKNRMHIRRKRIVGGKRAQLGDLPWQVAIKDASGITCGGIYIGGCWILTAAHCLRASKTHRYQIWTTVVDWIHPDLKRIVIEYVDRIIFHENYNAGTLQNDIALIEMKKDGNKKDCELPRSIPACVPWSPYLFQPNDTCIVSGWGRGKDNERVFSLQWGEVKLISNCSKFYGNRFYEKEMECAGTYDGSIDACKGDSGGPLVCMDANNVTYVWGVVSWGEGCGKPEFPGVYTKVANYFDWISYHVGRPFISQYNVGGSSGGSSGGEDCNELPPRRNTEILTGSWSDQTYPEGTQAIYKCRPGYRSLGNVIMVCRKGEWVALNPLRKCQKRPCGHPGDTPFGTFTLTGGNVFEYGVKAVYTCNEGYQLLGEINYRECDTDGWTNDIPICEVVKCLPVTAPENGKIVSSAMEPDREYHFGQAVRFVCNSGYKIEGDEEMHCSDDGFWSKEKPKCVEISCKSPDVINGSPISQKIIYKENERFQYKCNMGYEYSERGDAVCTESGWRPLPSCEE
B5: CFI-HSA Y408L; N531G; E457G; E461Q; R462K; F464Y; … (SEQ ID NO: 26); CCP_1-4 (enzyme)
chain: [in this place about 600 residues]GGSSGGKVTYTSQEDLVEKKCLAKKYTHLSCDKVFCQPWQRCIEGTCVCKLPYQCPKNGTAVCATNRRSFPTYCQQKSLECLHPGTKFLNNGTCTAEGKFSVSLKHGNTDSEGIVEVKLVDQDKTMFICKSSWSMREANVACLDLGFQQGADTQRRFKLSDLSINSTECLHVHCRGLETSLAECTFTKRRTMGYQDFADVVCYTQKADSPMDDFFQCVNGKYISQMKACDGINDCGDQSDELCCKACQGKGFHCKSGVCIPSQYQCNGEVDCITGEDEVGCAGFASVTQEETEILTADMDAERRRIKSLLPKLSCGVKNRMHIRRKRIVGGKRAQLGDLPWQVAIKDASGITCGGIYIGGCWILTAAHCLRASKTHRYQIWTTVVDWIHPDLKRIVIEYVDRIIFHENYNAGTLQNDIALIEMKKDGNKKDCELPRSIPACVPWSPYLFQPNDTCIVSGWGRGKDNQKVYSLQWGEVKLISNCSKFYGNRFYEKEMECAGTYDGSIDACKGDSGGPLVCMDANNVTYVWGVVSWGEGCGKPEFPGVYTKVANYFDWISYHVGRPFISQYNVGGSSGGSSGGEDCNELPPRRNTEILTGSWSDQTYPEGTQAIYKCRPGYRSLGNVIMVCRKGEWVALNPLRKCQKRPCGHPGDTPFGTFTLTGGNVFEYGVKAVYTCNEGYQLLGEINYRECDTDGWTNDIPICEVVKCLPVTAPENGKIVSSAMEPDREYHFGQAVRFVCNSGYKIEGDEEMHCSDDGFWSKEKPKCVEISCKSPDVINGSPISQKIIYKENERFQYKCNMGYEYSERGDAVCTESGWRPLPSCEE
B6: CFI-HSA ΔC-term (Δ557-… (SEQ ID NO: 27)-565) (enzyme)
chain: [in this place about 600 residues]GGSSGGKVTYTSQEDLVEKKCLAKKYTHLSCDKVFCQPWQRCIEGTCVCKLPYQCPKNGTAVCATNRRSFPTYCQQKSLECLHPGTKFLNNGTCTAEGKFSVSLKHGNTDSEGIVEVKLVDQDKTMFICKSSWSMREANVACLDLGFQQGADTQRRFKLSDLSINSTECLHVHCRGLETSLAECTFTKRRTMGYQDFADVVCYTQKADSPMDDFFQCVNGKYISQMKACDGINDCGDQSDELCCKACQGKGFHCKSGVCIPSQYQCNGEVDCITGEDEVGCAGFASVTQEETEILTADMDAERRRIKSLLPKLSCGVKNRMHIRRKRIVGGKRAQLGDLPWQVAIKDASGITCGGIYIGGCWILTAAHCLRASKTHRYQIWTTVVDWIHPDLKRIVIEYVDRIIFHENYNAGTYQNDIALIEMKKDGNKKDCELPRSIPACVPWSPYLFQPNDTCIVSGWGREKDNERVFSLQWGEVKLISNCSKFYGNRFYEKEMECAGTYDGSIDACKGDSGGPLVCMDANNVTYVWGVVSWGENCGKPEFPGVYTKVANYFDWISYHVG
B7: CFI-HSA variant 456-… (SEQ ID NO: 9)-465 → … (SEQ ID NO: 10) (enzyme)
chain: [in this place about 600 residues]GGSSGGKVTYTSQEDLVEKKCLAKKYTHLSCDKVFCQPWQRCIEGTCVCKLPYQCPKNGTAVCATNRRSFPTYCQQKSLECLHPGTKFLNNGTCTAEGKFSVSLKHGNTDSEGIVEVKLVDQDKTMFICKSSWSMREANVACLDLGFQQGADTQRRFKLSDLSINSTECLHVHCRGLETSLAECTFTKRRTMGYQDFADVVCYTQKADSPMDDFFQCVNGKYISQMKACDGINDCGDQSDELCCKACQGKGFHCKSGVCIPSQYQCNGEVDCITGEDEVGCAGFASVTQEETEILTADMDAERRRIKSLLPKLSCGVKNRMHIRRKRIVGGKRAQLGDLPWQVAIKDASGITCGGIYIGGCWILTAAHCLRASKTHRYQIWTTVVDWIHPDLKRIVIEYVDRIIFHENYNAGTYQNDIALIEMKKDGNKKDCELPRSIPACVPWSPYLFQPNDTCIVSGWGNTASSGADYPDELQWGEVKLISNCSKFYGNRFYEKEMECAGTYDGSIDACKGDSGGPLVCMDANNVTYVWGVVSWGENCGKPEFPGVYTKVANYFDWISYHVGRPFISQYNV

Biological target: T1, human C4b (human) (UniProt P0C0L4)
T1 sequence: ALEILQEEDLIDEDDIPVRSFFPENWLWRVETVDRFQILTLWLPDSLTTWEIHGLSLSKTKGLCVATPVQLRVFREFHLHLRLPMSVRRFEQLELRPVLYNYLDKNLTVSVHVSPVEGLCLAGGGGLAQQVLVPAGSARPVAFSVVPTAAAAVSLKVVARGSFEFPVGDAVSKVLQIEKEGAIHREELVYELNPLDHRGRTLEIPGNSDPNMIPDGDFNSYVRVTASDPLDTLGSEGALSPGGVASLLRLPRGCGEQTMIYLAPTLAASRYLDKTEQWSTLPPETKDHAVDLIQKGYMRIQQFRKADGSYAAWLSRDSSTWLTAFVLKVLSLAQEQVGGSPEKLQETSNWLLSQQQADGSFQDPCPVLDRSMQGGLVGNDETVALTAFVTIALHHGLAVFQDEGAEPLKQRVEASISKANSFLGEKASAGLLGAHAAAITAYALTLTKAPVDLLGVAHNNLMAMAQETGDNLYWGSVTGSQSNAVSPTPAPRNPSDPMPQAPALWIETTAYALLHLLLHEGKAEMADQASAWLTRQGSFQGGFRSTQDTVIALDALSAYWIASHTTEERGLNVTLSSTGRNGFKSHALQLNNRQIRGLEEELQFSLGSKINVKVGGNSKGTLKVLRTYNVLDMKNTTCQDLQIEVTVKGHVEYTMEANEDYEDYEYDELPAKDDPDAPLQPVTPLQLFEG

C4b Screen Ref Fold (fold of CFI-HSA wild type)	Binder
0.8	B1
1.32	B2
2.83	B3
3.61	B4
1.76	B5

Biological target: T2, human C4b (human) (UniProt P0C0L5)
T2 sequence: T1 sequence with A151T, D317G, P364L, C365S, L368I, D369H, N420S, V451A, L454R, S530A

C4b Screen Ref Fold (fold vs CFI-HSA wild type)	Binder
0.15	B6
0.08	B7

Biological target: soluble human C3b (human) (UniProt P01024)

iC3b Screen Ref Fold (fold vs CFI-HSA wild type)	iC3b Screen Ref Fold (fold of CFI-HSA wild type)	Binder
-0.02		B6
0.03		B7
	0.01	B1
	-0.01	B2
	0.06	B3
	0.09	B4
	0.09	B5
